Test results: PubChem BioAssay AID894 (National Center for Advancing Translational Sciences (NCATS), 2007)
The whole screen tested about 150,000 compounds, of which about 6,500 (4.3%) were called active. Inconclusive means that the source gave no clear call. Such entries were picked first, then a sample of the others. Calls come from the whole dose curve; as a rule, active = well fitted inhibition curve with a large enough effect (not every such curve was filed as active); inconclusive = small, poorly fitted or top-dose-only effect, or another doubt; inactive = no such curve, though single readings can be large or run the other way. No potency is given beside an inconclusive call; the fits are too rough.
% is set by controls: 0 for no effect and ±100 for the full control effect; potency is the fitted concentration of half-maximal effect; tags give direction and shape of the fitted curve.

What follows are molecules tested against 15-hydroxyprostaglandin dehydrogenase [NAD(+)] (Homo sapiens) (UniProt P15428) (assay: qHTS Assay for Inhibitors of HPGD (15-Hydroxyprostaglandin Dehydrogenase)). Conditions: purified HPGD, NADH fluorescence kinetic, PGE2 substrate; activity change, negative = inhibition: active compounds read low.
UniProt P15428, sequence (P15428 whole entry, looked up): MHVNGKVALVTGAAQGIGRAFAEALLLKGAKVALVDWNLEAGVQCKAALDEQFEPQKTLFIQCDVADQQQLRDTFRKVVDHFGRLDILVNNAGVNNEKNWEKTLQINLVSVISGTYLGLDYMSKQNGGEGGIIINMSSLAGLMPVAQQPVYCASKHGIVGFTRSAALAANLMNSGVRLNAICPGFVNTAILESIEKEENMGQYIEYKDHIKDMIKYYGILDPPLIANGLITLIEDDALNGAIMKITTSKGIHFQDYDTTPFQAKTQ
Outline: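 NADH formation kinetics: reaction with 30 uM PGE2 and 1 mM NAD+ (final), 20 nM enzyme, Tris-HCl pH 8 with Tween 20, after 15 min compound preincubation at room temperature. Fluorescence change, last versus first of five reads.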
In the case of `NC(N)=NCCCC(NC(=O)C(N)Cc1ccc(O)cc1)C(=O)O` (stereo not drawn), the activity change, negative = inhibition is reported as inactive: -16.6%. For `COC(=O)Cc1c(C)c2ccc(OCC(C)=O)c(C)c2oc1=O`, the Potency was inconclusive [inhibitor, partial curve]. In the case of `CC(=S)/C=C1\Sc2ccccc2N1C`, the Potency is reported as inconclusive [inhibitor, partial curve]. `O=S(=O)(c1ccccc1)c1nc(-c2ccccc2Cl)oc1NCCN1CCOCC1` was tested, and the Potency was inconclusive [inhibitor, partial curve]. For `O=C(NCC1CCCO1)c1sc2cc(Cl)ccc2c1Cl` (stereo not drawn), the Potency was active: 14.1 µM. With `CCn1c(CNc2ccc(C)cc2C)nnc1SCC(=O)N1CCCc2ccccc21` the activity change, negative = inhibition was inactive: -11.1%. With `Fc1ccc(CSc2nnc(-c3cc4c(s3)-c3ccccc3CC4)o2)cc1` the Potency was inconclusive [inhibitor, partial curve]. With `COc1ccc(C2Nc3ccccc3C(=O)N2c2ccccc2)cc1COc1ccccn1` (stereo not drawn) the Potency was inconclusive [inhibitor, partial curve]. `O=C(CN1CCN(S(=O)(=O)c2ccc(Br)cc2)CC1)N/N=C/c1cc([N+](=O)[O-])ccc1Cl` was tested, and the activity change, negative = inhibition was inactive: -8.97%. With `CC(C)(C)c1ccc(OCC(=O)Nc2ccc(-c3nc4cccnc4o3)cc2)cc1` the Potency was inconclusive [inhibitor, partial curve]. In the case of `COC(=O)C1=C(C)NC(=O)NC1c1ccc(OCC(=O)N2CCCCC2)cc1` (stereo not drawn), the Potency is reported as inconclusive [inhibitor, partial curve]. In the case of `CC(=O)c1cccc(N(CC(=O)NCC2CCCO2)C(=O)CCC(=O)Nc2cc(C)on2)c1` (stereo not drawn), the activity change, negative = inhibition is reported as inactive: -11.6%. For `N#Cc1ccsc1NC(=O)CN1CCN(S(=O)(=O)c2cc(Cl)ccc2Cl)CC1`, the activity change, negative = inhibition was inactive: -24.3%. For `COc1ccc(/C=C/C=C2\N=C(SC)SC2=O)cc1`, the activity change, negative = inhibition was inactive: -22.5%. With `O=S(=O)(Nc1ncn[nH]1)c1ccc2ccccc2c1` the activity change, negative = inhibition was inactive: -0.462%. For `O=C(O)c1cc(-c2ccccc2)on1`, the activity change, negative = inhibition was inactive: -28.2%. For `CCCn1c(SCC(=O)Nc2cc(S(=O)(=O)N3CCOCC3)ccc2OC)n[nH]c1=O`, the Potency was inconclusive [inhibitor, single point]. `CCOC(=O)c1c(NC(=O)c2ccccc2N(C)S(=O)(=O)c2ccccc2)sc2c1CCCC2` was tested, and the Potency was inconclusive [inhibitor, partial curve]. With `Cn1c(NCc2ccco2)nc2c1c(=O)n(Cc1ccc(Cl)c(Cl)c1)c(=O)n2C` the Potency was inconclusive [inhibitor, partial curve, poor fit]. For `O=C(NC12CC3CC(CC(C3)C1)C2)c1ccccc1O`, the Potency was inconclusive [inhibitor, partial curve]. In the case of `OC(CNc1nc2ccccc2s1)c1ccccc1` (stereo not drawn), the Potency is reported as active: 10 µM. For `CC(C)(C)NS(=O)(=O)c1ccc(CCC(=O)O)cc1`, the activity change, negative = inhibition was inactive: -10.8%. In the case of `Cc1c(OCc2ccccc2)c(=O)ccn1Cc1ccccc1`, the Potency is reported as inconclusive [inhibitor, partial curve]. In the case of `Cc1ccc(-c2nc3ccccc3[nH]2)cc1NC(=O)c1sc2ccccc2c1Cl`, the Potency is reported as inconclusive [inhibitor, partial curve]. `CC(CCc1ccccc1)NC(=O)COc1ccc(S(=O)(=O)N2CCOCC2)cc1[N+](=O)[O-]` (stereo not drawn) was tested, and the activity change, negative = inhibition was inactive: -8.02%. `CCOC(=O)c1c(N)n(CC(C)NC(=O)C2CC2)c2nc3ccccc3nc12` (stereo not drawn) was tested, and the Potency was inconclusive [inhibitor, partial curve]. For `O=C1c2ccsc2SCCN1Cc1cccc(Cl)c1`, the Potency was inconclusive [inhibitor, single point]. In the case of `COc1cc(/C=C/C(=O)OCC(=O)N2CCC(Cc3ccccc3)CC2)ccc1O`, the Potency is reported as inconclusive [inhibitor, single point]. In the case of `CCC(CC)NC(=O)COC(=O)c1cccc(C)c1O`, the Potency is reported as inconclusive [inhibitor, single point]. `CCCCC(=O)NC(Nc1nc(C2CC2)cs1)(C(=O)OCC)C(F)(F)F` (stereo not drawn) was tested, and the activity change, negative = inhibition was inactive: -1.01%. For `CCCCOc1cc(C)nc(NCc2ccccc2)n1`, the Potency was inconclusive [inhibitor, partial curve]. `COc1ccc(-c2c(C#N)c(N)nc3sc(C(=O)c4ccccc4)c(N)c23)cc1` was tested, and the Potency was inconclusive [inhibitor, partial curve]. In the case of `COCCn1c(N)c(C(=O)NCc2cccs2)c2nc3ccccc3nc21`, the Potency is reported as inconclusive [inhibitor, partial curve]. With `O=C(CSc1ncnc2c1oc1ccccc12)Nc1ccccc1C(F)(F)F` the Potency was inconclusive [inhibitor, partial curve]. With `O=C(Cc1ccc2c(c1)CCCC2)Nc1ccc2ccccc2c1` the Potency was inconclusive [inhibitor, partial curve]. In the case of `COC(=O)c1c(NC(=O)C2(C)Cc3ccccc3C(=O)O2)sc2c1CCCC2` (stereo not drawn), the Potency is reported as inconclusive [inhibitor, single point]. With `CC(=Nc1ccc2c(c1)nc(CO)n2C)C1=C(O)CC(C)(C)CC1=O` the Potency was active: 3.55 µM. In the case of `COc1ccc(C2SCCN2C(=S)Nc2ccc(Cl)cc2)cc1` (stereo not drawn), the Potency is reported as inconclusive [inhibitor, partial curve]. `Cc1cc2nc(-c3ccc(SCC(=O)Nc4ccc(S(=O)(=O)NC5CC5)cc4)nc3)[nH]c2cc1C` was tested, and the Potency was inconclusive [inhibitor, single point]. With `COc1ccc(C(=O)N2CCC3(CC2)CCN(c2ccccn2)CC3)cc1` the Potency was inconclusive [inhibitor, partial curve]. In the case of `Cc1cc(C)n(CCc2nc(-c3ccc(F)cc3)cs2)n1`, the Potency is reported as active: 25.1 µM. For `CC1(C)CC2CC(C)(CN2S(=O)(=O)c2ccc(C(=O)Nc3ccc(S(=O)(=O)N4CCOCC4)cc3)cc2)C1` (stereo not drawn), the Potency was inconclusive [inhibitor, partial curve]. With `O=S(=O)(c1ccc(Oc2ccc(Br)cc2)cc1)N1CCOCC1` the activity change, negative = inhibition was inactive: -10.2%. For `O=C1c2ccccc2NC(c2ccccn2)N1c1ccc(Cl)cc1` (stereo not drawn), the Potency was inconclusive [inhibitor, partial curve]. With `CCn1ncc([N+](=O)[O-])c1C(=O)Nc1ccc(C(=O)N2CCCCC2)cc1` the Potency was active: 2.24 µM. `Cc1ccc2nc(SCc3nnc(-c4cccs4)o3)[nH]c2c1` was tested, and the Potency was active: 31.6 µM. In the case of `O=C(CNC(=O)c1ccc(F)cc1)N/N=C/c1ccc(O)c([N+](=O)[O-])c1`, the Potency is reported as active: 25.1 µM. With `O=C(COc1ccccc1Cl)OCC(=O)N1CCN(S(=O)(=O)c2ccccc2)CC1` the Potency was inconclusive [inhibitor, partial curve]. In the case of `CN(C)S(=O)(=O)c1cccc(NC(=S)Nc2cc(Cl)cc(Cl)c2)c1`, the activity change, negative = inhibition is reported as inactive: -23.1%. In the case of `CC(C)(C)OC(=O)NCCCCCc1nnc(SCC(=O)Nc2cccc(Cl)c2)o1`, the Potency is reported as active: 14.1 µM. `CCOC(=O)c1c(CSc2nc(C)cc(C)c2C#N)n(C)c2cc(Br)c(OC(C)=O)cc12` was tested, and the activity change, negative = inhibition was inactive: -4.04%. For `COc1ccc(NC(=O)N(CCCN(C)C)Cc2cc3cc(OC)ccc3[nH]c2=O)cc1`, the Potency was inconclusive [inhibitor, partial curve]. With `COc1ccc(NC(=O)COC(=O)CCCOc2ccc(Cl)cc2Cl)cc1Cl` the Potency was active: 28.2 µM. In the case of `COc1cc(NS(=O)(=O)c2ccc(C)cc2)c2ncccc2c1`, the Potency is reported as inconclusive [inhibitor, single point]. With `COc1ccc(-c2nn(-c3ccccc3)cc2/C=N/NC(=O)c2ccc(Br)o2)cc1` the Potency was inconclusive [inhibitor, partial curve]. For `CCOC(=O)c1nc(Nc2ccc(C(=O)OC)cc2)c2ccccc2n1`, the Potency was inconclusive [inhibitor, partial curve]. With `Cc1ccc2cc(CN(CC(C)C)C(=O)C3CCCO3)c(=O)[nH]c2c1` (stereo not drawn) the Potency was inconclusive [inhibitor, single point]. `COC(=O)c1ccc(NS(=O)(=O)c2cc(C)ccc2OC)cc1` was tested, and the Potency was inconclusive [inhibitor, partial curve]. In the case of `Cc1ccc(NC(=S)NCc2cccs2)c(C)c1`, the Potency is reported as inconclusive [inhibitor, single point]. `O=c1[nH]c(CN2CCc3ccccc32)nc2scc(-c3cccs3)c12` was tested, and the activity change, negative = inhibition was inactive: -27.5%. In the case of `COC(=O)c1ccc(CC(=O)c2ccc(O)cc2O)o1`, the Potency is reported as active: 31.6 µM. For `CC(Cc1cccs1)NC(=S)Nc1ccc(Cl)cc1` (stereo not drawn), the Potency was inconclusive [inhibitor, single point]. With `O=C(Cn1nc(Cl)nc1Cl)c1cc2ccccc2oc1=O` the Potency was inconclusive [inhibitor, partial curve]. With `COc1cc(/C=C(/C#N)c2nc3ccccc3[nH]2)ccc1OCc1ccc(C(=O)O)o1` the Potency was inconclusive [inhibitor, partial curve]. For `Cc1noc(C)c1CSc1ccccc1C(=O)N1CCN(c2ccccc2)CC1`, the activity change, negative = inhibition was inactive: -13.8%. For `CCN(CC)S(=O)(=O)c1ccc2[nH]cc(C(=O)NCCc3ccccc3)c(=O)c2c1`, the Potency was inconclusive [inhibitor, partial curve]. For `COC(=O)C1C(=O)C2=C(CC1C)NC(C)=C(C(=O)OCc1ccc(OC)cc1)C2c1ccc(C)o1` (stereo not drawn), the Potency was inconclusive [inhibitor, single point]. In the case of `N=c1c(S(=O)(=O)c2ccc(Cl)cc2)cc2c(=O)n3ccccc3nc2n1CCN1CCOCC1`, the Potency is reported as inconclusive [inhibitor, full curve].
